Test results taken from the antibiotic and cytotoxicity screens of Wong et al. (2023).
The list shows a part of the results.

Legend:
HSkMC = human skeletal muscle cells; experiment: cytotoxicity call (relative viability < 0.9); details: 10 µM
HepG2 = experiment: cytotoxicity call (relative viability < 0.9); details: 10 µM
S. aureus RN4220 = experiment: growth inhibition call (relative growth <= 0.2); details: 50 µM

SMILES | cytotoxicity call (HSkMC) | cytotoxicity call (HepG2) | growth inhibition call (S. aureus RN4220)
Cc1ccc(S(=O)(=O)N(C)C[C@H]2Oc3c(NC(=O)Nc4cccc5ccccc45)cccc3C(=O)N([C@@H](C)CO)C[C@H]2C)cc1 | inactive | inactive | inactive
Cc1noc(C)c1NC(=O)Nc1ccc2c(c1)C(=O)N([C@H](C)CO)C[C@H](C)[C@H](CN(C)C(=O)NC(C)C)O2 | inactive | inactive | inactive
C=CC(=O)Nc1cccc(Nc2nc(Nc3ccc(NC4CN(CCF)C4)cc3OC)ncc2C(F)(F)F)c1 | active | active | inactive
COc1ccccc1-c1cnc2c(c1)C(=O)N([C@@H](C)CO)C[C@H](C)[C@H](CN(C)C(=O)c1cccnc1)O2 | inactive | inactive | inactive
CC(=O)NCCCC[C@@H]1NC(=O)[C@@H]2C[C@H](C(=O)NCCCCCN)[C@H](c3cccc(OCCO)c3)N2C1=O | inactive | inactive | inactive
C[C@H](CO)N1C[C@H](C)[C@H](CN(C)C(=O)Nc2cccc3ccccc23)OCCCC[C@H](C)Oc2ccc(NC(=O)NC3CCCCC3)cc2C1=O | inactive | active | inactive
C[C@H](CO)N1C[C@H](C)[C@H](CN(C)C(=O)Nc2cccc3ccccc23)Oc2ncc(-c3ccccc3)cc2C1=O | inactive | inactive | inactive
COc1ccc(S(=O)(=O)N(C)C[C@@H]2OCCCC[C@@H](C)Oc3ccc(NC(=O)C4CCCCC4)cc3C(=O)N([C@@H](C)CO)C[C@H]2C)cc1 | inactive | inactive | inactive
O=C1CSC(=Nc2nccs2)N1 | inactive | inactive | inactive
CCCCCCCC(=O)N[C@H](CN1CCCC1)[C@H](O)c1ccc2c(c1)OCCO2 | inactive | inactive | inactive
